The text below walks through data of PubChem BioAssay AID1508623 (National Center for Advancing Translational Sciences (NCATS), 2021).

In all, about 48,000 compounds went through this assay and about 450 (0.94%) were called active. Another 19% or so got no clear call; they are omitted. The call rests on the fitted dose curve; in most records, active means well fitted inhibition curve with a large enough effect; inconclusive means small, poorly fitted or top-dose-only effect; inactive means no such curve, though single readings can be large or run the other way. The list shows a part of the results.

The nature of the test: Primary qHTS for Identification of Small Molecule Inhibitors of Huntingtin Promoter Activity. Further: nearly all actives have a fitted effect of over 50% in size. Particulars: HEK293 HTT promoter firefly luciferase reporter (activity 0% = vehicle and -100% = no light), 24 h; series mostly up to 57.5 µM; activity change, negative = inhibition: at the top concentration. In outline:
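Firefly luciferase readout (Dual-Glo, 10 min RT) after 24 h, 37 °C compound exposure (final up to 57.5 uM) of HEK293 reporter cells cultured 24 h beforehand; PTC124 at 50 uM final as control inhibitor; activity scaled vehicle 0%, zero RLU -100%.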
On the technique in general: qHTS replaces the single test concentration by a dilution series.
For `CCOCCc1nn2c(=O)cc(COC(=O)c3ccccc3NC(=O)c3ccccc3F)nc2s1`, the “activity change, negative = inhibition” value is inactive: 4.57%.

As for `CCOc1ccc(C(=O)c2cn(CC(=O)Nc3ccc(OC)cc3)c3cc4c(cc3c2=O)OCO4)cc1`, the “activity change, negative = inhibition” value is inactive: -1.53%.

For `O=C(NCC(c1ccc2c(c1)OCO2)N1CCN(c2ccccc2)CC1)C(=O)Nc1ccc(F)cc1` (configuration not stated), the “activity change, negative = inhibition” value was inactive: 72.1%.

Take `CCOC(=O)c1c(C)[nH]c(C)c1S(=O)(=O)N1CCCC(C(=O)Nc2ncccc2C)C1` (configuration not stated): the “activity change, negative = inhibition” value is inactive: 26.7%.

Consider `CC(C)CCn1c(=O)c2cccnc2n(CC(=O)Nc2ccccc2)c1=O`, for which the “activity change, negative = inhibition” value was inactive: -18.2%.

As for `CCS(=O)(=O)N1CC(=O)N(c2cccc(Cl)c2)C(C)(C(=O)NC2CCCCCC2)C1` (configuration not stated), the “activity change, negative = inhibition” value is inactive: -17.1%.

On to `Cc1oc(-c2ccc(C(=O)NCCC(C)C)cc2)nc1CS(=O)(=O)c1ccccc1`, for which the activity change, negative = inhibition was inactive: -2.9% [at 11.5 µM].

Take `COC(=O)c1sccc1S(=O)(=O)N(CC(=O)NCc1ccc(C)cc1)c1ccccc1`: the “activity change, negative = inhibition” value was inactive: -12.4%.

As to `N#Cc1c[nH]n2c(NC3CCCC3)c(-c3cccc(Br)c3)nc12`, the “activity change, negative = inhibition” value is inactive: -19.7%.

In the case of `CCOCCCn1c(=N)c(C(=O)NC(C)c2ccccc2)cc2c(=O)n3cc(C)ccc3nc21` (configuration not stated), the “activity change, negative = inhibition” value was inactive: 6.15%.

In the case of `CCc1cccc(CC)c1NC(=O)CN(CC(=O)O)CC(=O)O`, the “activity change, negative = inhibition” value is inactive: 2.5%.

In the case of `Cc1ccn2c(NC(=O)c3cccc(Cl)c3)c(-c3ccccc3)nc2c1`, the “activity change, negative = inhibition” value was inactive: 5.91%.

Turning to `CCCC(=O)N1CCc2cc(OC)c(OC)cc2C1COc1ccccc1OC` (configuration not stated), the “activity change, negative = inhibition” value was inactive: -21.1%.

For the compound `CCOC(=O)Cc1cc(C(=O)Nc2ccc(Br)cc2)sc1-c1ccc(C)cc1`, the “activity change, negative = inhibition” value is inactive: -13.6%.

For the compound `Cc1nc2sc(C)c(C)n2c(=O)c1S(=O)(=O)N1CCN(c2ccccc2F)CC1`, the “activity change, negative = inhibition” value was inactive: 0.759%.

Regarding `Cc1cc(C)cc(OCC(=O)Nc2nonc2-c2ccc(Br)cc2)c1`, the “activity change, negative = inhibition” value was inactive: -18%.

For the compound `Cc1ccc2c(Sc3ccc(Cl)cc3)c(C(=O)NCCC(C)C)[nH]c2c1`, the “activity change, negative = inhibition” value is inactive: -16.8%.

For the compound `Cc1c(C(=O)N(Cc2ccc(N(C)C)cc2)CC2CCCO2)oc2ccccc12` (configuration not stated), the “activity change, negative = inhibition” value was inactive: -0.695%.

In the case of `CCc1nnc(SCc2nc(-c3ccccc3Cl)oc2C)c2cc3sc(C)cc3n12`, the “activity change, negative = inhibition” value is inactive: -2.31%.

`O=C(Nc1nc2c(F)cccc2s1)c1ccc(S(=O)(=O)N2CCOCC2)cc1`: the “activity change, negative = inhibition” value is inactive: -16.5%.

`COc1ccc2[nH]cc(CCNC(=O)Nc3ccccc3)c2c1`: the “activity change, negative = inhibition” value is inactive: -9.58%.

Consider `COc1ccc(CN(C(=O)c2ccccc2F)C2CCS(=O)(=O)C2)cc1` (configuration not stated), for which the “activity change, negative = inhibition” value was inactive: -12.5%.

With `Cc1ccc(NC(=O)CN2C(=O)c3cccnc3Sc3ccccc32)cc1C`, the “activity change, negative = inhibition” value is inactive: 35.5%.

On to `CCCN(Cc1cccs1)C(=O)Nc1cc(C)cc(C)c1`, for which the “activity change, negative = inhibition” value was inactive: -9.3%.

With `Cc1nn(C)c2c1c(-c1ccccc1)cc(=O)n2Cc1ccc(F)cc1Cl`, the “activity change, negative = inhibition” value is inactive: -18.2%.

`CCN(CC)C(=O)Cn1c(=O)n(-c2ccc(Cl)cc2)c(=O)c2c3c(sc21)CCCCC3`: the “activity change, negative = inhibition” value is inactive: -9.48%.

In the case of `COc1ccc(-c2nc3ccccc3o2)cc1NC(=O)c1cccc2c(Cl)cccc12`, the “activity change, negative = inhibition” value was inactive: 5.05%.
